Out of some 360,000 compounds screened, about 17,000 (4.7%) were called active. Inconclusive means that the source gave no clear call. Such entries were picked first, then a sample of the others. Rule as the data show it: active = activity change below about -50%; inconclusive = mostly about -30% to -49%; inactive = weaker than that.
experiment: qHTS for Inhibitors of Inflammasome Signaling: IL-1-beta AlphaLISA Primary Screen; conditions: THP-1 LPS/ATP IL-1B secretion, 16 h; at 57.5 µM, active compounds read low
Procedure, shortened: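 THP-1 cells pretreated 1 hr with compounds (up to 57.5 uM final), then stimulated with LPS (250 ng/mL final) plus ATP (1.25 mM final); secreted IL-1B measured by AlphaLISA after 16 hr, decreased signal indicating inhibition.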
% is scaled to controls: 0 for no effect and ±100 for the full control effect.

Activity change, inactive:
CCCCc1ccc(-c2csc(/C(C#N)=C\c3ccco3)n2)cc1 -2.82%, c1ccc(-c2c[nH]c3[n+]2CCCCC3)cc1 7.52%, COc1ccc(N2CC(C(=O)N3CCC4(CC3)CC(=O)c3ccccc3O4)CC2=O)cc1 (stereo not drawn) 8.66%, CCCSc1nc(C)cc(C)c1C(N)=O -5.88%, Cc1ccc(S(=O)(=O)N/N=C/c2c(C)nn(-c3ccccc3)c2C)cc1 -11.1%, CCN(CC)CCCNC(=O)c1sc2ncn(CC(=O)Nc3ccc(C)c(Cl)c3)c(=O)c2c1C -14.5%

Activity change, inconclusive:
CCOC(=O)[C@H]1[C@H]2COc3ccc(C)cc3[C@@H]2N2C(=O)c3cc(F)ccc3NC(=O)[C@@]12C -34.3%, COc1ccc(NC(=S)NCCSc2ccc(C)cc2)c(OC)c1 -47.8%, CCCCn1c(N)c(N(CC(C)C)C(=O)c2ccc(-c3ccc(Cl)cc3)o2)c(=O)[nH]c1=O -31.9%, C=CC[C@H](CC(=O)N(CCO)Cc1ccccc1)C(=O)N[C@@H](COC(=O)[C@@H](CC=C)CC(=O)OC(C)(C)C)Cc1c[nH]c2ccccc12 -44.3%, CCOc1ccc(-c2csc3nc[nH]c(=O)c23)cc1 -32.4%, O=C(C1CCCN(c2nnc(-n3cccc3)s2)C1)N1CCN(c2ccccc2)CC1 (stereo not drawn) -43.5%, COc1cc2cc(C(N)=O)c(N)nc2cc1OC -30.2%, O=C1CCN(CCc2ccccc2)CCN1[C@H](COc1ccccc1)Cc1ccccc1 -39.7%, CC(C)C[C@H]1CN([C@@H](CC(C)C)CN2CCC[C@H]2CN2C(=O)C(=O)NC[C@@H]2Cc2ccc(O)cc2)C(=O)C(=O)N1CCc1ccccc1 -47.2%, CC(OC(=O)c1ncc(Cl)c(Cl)c1Cl)C(=O)NC1CCCCC1C (stereo not drawn) -32.2%, COc1cc2c(cc1OC)CN(C(=O)c1cccs1)CC2 -36.6%, O=S(=O)(Nc1ccc(-c2cn3ccccc3n2)cc1)c1ccccc1 -34.2%, Cc1ccc2cc(/C=C(\C#N)C(N)=O)c(N3CCCCC3)nc2c1 -37.8%

Activity change, active:
CCc1ccc2nc(N(CCN(C)C)C(=O)c3ccc4ncsc4c3)sc2c1 -75.8%, Cc1cc(O)c(C(C)C)cc1NC(=O)Nc1cccc2ccccc12 -66%, Cc1ccccc1OCC(O)CN1CCN(CCN2C(=O)c3cccc4cccc(c34)C2=O)CC1 (stereo not drawn) -87.4%, CCOC(=O)Cn1cc(/C=C/[N+](=O)[O-])c2ccccc21 -50.7%
